Measurements from paper doi:10.1101/2020.11.17.386581 (bioRxiv, 2020).

Target: Full-length human LRP1 purified from placenta (human, UniProt Q07954 20-4544)
Experiment: SPR

UniProt Q07954, sequence (Q07954 20-4544): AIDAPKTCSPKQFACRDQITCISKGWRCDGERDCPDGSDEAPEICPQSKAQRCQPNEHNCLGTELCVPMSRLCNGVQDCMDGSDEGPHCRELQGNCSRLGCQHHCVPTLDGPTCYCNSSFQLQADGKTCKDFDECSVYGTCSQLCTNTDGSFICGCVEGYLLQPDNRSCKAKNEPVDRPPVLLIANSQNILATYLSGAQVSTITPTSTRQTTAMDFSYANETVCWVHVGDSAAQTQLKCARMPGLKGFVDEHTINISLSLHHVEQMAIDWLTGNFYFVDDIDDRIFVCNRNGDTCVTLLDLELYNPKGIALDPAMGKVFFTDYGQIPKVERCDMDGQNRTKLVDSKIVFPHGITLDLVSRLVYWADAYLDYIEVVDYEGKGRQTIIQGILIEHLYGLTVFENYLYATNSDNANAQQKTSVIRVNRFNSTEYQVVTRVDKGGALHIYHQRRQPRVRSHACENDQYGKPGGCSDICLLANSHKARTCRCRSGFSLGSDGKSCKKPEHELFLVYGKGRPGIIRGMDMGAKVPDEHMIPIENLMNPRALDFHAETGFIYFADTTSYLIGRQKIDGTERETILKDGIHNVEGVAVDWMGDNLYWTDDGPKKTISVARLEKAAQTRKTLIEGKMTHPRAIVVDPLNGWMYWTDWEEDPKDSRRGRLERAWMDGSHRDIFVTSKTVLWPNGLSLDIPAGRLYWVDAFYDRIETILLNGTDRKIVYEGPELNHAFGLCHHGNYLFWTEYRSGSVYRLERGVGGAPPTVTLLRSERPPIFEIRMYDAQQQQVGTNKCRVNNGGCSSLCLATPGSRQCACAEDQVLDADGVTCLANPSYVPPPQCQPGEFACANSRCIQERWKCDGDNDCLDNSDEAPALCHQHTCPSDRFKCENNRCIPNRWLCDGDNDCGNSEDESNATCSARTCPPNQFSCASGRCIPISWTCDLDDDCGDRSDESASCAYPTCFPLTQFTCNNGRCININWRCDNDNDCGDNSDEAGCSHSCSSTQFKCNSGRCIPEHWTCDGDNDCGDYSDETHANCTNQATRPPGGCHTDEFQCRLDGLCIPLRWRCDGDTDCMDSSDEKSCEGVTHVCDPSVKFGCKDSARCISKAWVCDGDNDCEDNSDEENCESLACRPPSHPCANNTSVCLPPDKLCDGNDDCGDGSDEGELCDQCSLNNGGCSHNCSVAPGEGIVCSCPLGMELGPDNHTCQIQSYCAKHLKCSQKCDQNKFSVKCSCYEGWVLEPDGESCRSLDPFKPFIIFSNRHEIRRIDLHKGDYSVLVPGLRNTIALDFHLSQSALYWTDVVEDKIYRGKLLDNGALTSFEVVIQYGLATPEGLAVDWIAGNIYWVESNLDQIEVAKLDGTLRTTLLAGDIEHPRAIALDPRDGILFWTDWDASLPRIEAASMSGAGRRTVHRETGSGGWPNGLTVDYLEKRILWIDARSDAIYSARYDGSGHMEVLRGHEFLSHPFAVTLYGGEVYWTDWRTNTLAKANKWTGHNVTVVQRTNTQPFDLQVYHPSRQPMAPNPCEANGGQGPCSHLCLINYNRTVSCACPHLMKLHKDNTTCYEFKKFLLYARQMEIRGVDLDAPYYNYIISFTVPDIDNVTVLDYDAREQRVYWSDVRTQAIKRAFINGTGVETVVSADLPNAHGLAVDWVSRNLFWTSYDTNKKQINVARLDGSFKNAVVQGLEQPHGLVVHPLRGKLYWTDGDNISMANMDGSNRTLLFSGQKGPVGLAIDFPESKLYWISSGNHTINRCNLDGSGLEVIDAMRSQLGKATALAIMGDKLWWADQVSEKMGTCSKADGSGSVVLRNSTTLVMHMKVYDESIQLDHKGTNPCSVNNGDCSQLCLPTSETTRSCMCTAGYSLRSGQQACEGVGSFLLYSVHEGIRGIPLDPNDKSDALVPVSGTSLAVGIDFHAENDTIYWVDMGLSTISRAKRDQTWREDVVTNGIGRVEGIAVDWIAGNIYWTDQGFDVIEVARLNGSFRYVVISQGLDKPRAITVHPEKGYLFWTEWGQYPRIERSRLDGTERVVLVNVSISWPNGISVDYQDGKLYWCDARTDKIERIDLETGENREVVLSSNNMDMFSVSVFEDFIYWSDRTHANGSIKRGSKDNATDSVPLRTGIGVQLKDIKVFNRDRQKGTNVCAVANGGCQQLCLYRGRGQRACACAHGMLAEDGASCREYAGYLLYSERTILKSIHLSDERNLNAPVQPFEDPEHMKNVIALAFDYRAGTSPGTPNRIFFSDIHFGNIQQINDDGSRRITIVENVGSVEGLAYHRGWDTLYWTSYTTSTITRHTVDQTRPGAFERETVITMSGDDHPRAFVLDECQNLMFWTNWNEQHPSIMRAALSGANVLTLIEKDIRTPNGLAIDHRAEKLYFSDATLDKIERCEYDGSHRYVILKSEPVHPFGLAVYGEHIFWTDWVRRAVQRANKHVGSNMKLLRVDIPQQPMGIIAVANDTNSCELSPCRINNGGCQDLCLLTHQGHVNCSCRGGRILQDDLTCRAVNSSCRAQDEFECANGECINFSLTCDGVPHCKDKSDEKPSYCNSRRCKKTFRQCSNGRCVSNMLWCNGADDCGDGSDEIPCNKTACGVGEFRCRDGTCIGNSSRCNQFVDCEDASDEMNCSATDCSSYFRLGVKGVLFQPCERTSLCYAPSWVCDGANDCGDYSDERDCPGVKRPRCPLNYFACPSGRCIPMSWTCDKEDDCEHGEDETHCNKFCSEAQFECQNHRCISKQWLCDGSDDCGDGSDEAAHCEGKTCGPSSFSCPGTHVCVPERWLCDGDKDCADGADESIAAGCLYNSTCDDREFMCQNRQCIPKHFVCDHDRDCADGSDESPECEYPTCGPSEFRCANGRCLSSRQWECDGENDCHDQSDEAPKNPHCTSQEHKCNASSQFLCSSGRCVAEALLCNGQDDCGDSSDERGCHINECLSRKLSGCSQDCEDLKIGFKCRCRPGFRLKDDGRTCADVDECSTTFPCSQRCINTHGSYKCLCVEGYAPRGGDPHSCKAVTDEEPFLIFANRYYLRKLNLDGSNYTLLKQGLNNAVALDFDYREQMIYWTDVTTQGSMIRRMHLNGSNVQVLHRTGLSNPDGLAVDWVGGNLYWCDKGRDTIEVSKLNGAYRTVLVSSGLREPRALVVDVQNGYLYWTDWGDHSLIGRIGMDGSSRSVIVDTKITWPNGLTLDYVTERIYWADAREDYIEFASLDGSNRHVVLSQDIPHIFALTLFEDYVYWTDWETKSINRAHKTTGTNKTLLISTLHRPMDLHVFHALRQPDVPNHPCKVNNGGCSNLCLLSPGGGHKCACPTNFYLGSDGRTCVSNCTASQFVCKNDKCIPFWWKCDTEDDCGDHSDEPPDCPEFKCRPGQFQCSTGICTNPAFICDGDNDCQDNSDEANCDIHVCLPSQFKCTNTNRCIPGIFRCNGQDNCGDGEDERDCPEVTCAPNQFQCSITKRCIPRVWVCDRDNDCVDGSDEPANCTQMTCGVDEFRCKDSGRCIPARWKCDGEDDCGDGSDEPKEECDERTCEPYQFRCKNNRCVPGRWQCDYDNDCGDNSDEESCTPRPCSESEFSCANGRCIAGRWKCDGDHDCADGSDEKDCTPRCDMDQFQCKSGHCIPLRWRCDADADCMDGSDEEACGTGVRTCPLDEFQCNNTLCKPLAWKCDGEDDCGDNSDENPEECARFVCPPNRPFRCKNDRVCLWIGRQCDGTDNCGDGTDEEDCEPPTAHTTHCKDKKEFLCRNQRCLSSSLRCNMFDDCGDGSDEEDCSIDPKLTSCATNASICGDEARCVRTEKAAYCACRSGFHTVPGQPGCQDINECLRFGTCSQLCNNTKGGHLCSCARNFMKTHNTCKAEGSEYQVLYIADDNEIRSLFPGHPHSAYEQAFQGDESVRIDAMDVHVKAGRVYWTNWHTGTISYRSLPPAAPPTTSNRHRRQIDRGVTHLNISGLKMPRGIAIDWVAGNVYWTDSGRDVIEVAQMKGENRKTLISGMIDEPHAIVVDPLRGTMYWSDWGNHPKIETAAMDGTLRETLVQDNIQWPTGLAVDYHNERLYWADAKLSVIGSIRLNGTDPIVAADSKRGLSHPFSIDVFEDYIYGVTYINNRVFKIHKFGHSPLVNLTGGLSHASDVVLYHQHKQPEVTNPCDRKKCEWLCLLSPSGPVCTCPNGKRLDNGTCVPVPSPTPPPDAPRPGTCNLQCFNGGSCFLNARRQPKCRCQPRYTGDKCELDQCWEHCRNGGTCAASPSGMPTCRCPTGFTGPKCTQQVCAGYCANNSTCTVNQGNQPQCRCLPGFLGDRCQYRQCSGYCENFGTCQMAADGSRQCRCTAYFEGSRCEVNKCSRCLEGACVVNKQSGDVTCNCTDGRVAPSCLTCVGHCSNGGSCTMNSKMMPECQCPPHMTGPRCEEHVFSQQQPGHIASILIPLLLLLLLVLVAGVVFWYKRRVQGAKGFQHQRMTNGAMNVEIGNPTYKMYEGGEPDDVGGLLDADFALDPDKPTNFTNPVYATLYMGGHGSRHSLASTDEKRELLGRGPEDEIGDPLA

Kd [nM] | Binder
73 ± 18 | tau microtubule binding domain (MBD; SP-496) (domain or fragment) not shown
278 ± 55 | recombinant human tau 2N3R (natural protein) not shown
